In article PMC9911399, “Two distinct binding modes provide the RNA-binding protein RbFox with extraordinary sequence specificity”:
Numbering of substitutions follows the chain as printed; changes in the protein carry UniProt numbers. The list shows a part of the results.

T1: RBFOX1 RRM RbFoxmut (Fox-RRM*) (Homo sapiens, UniProt Q9NWB1 109-208, R118D;E147R;N151S;E152T)
T1 sequence: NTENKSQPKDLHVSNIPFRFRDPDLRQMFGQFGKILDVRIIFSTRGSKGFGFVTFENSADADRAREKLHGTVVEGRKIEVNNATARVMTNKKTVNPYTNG

B1: AUAGAAC (DNA:RNA)
RNA: GGGAGACCGGAAUUCAGAUUGUCCAUAGAACUUAAAUCCCGUCGUAGCCACCA
DNA 1: CAATCTGAATTCCGGTCTCCC
DNA 2: TGGTGGCTACGACGGGATT
B2: CGCGUAG (DNA:RNA)
RNA: B1 RNA with A25C, U26G, A27C, A29U, C31G
DNA 1: CAATCTGAATTCCGGTCTCCC
DNA 2: TGGTGGCTACGACGGGATT
B3: GGGCAUC (DNA:RNA)
RNA: B1 RNA with A25G, U26G, A27G, G28C, A30U
DNA 1: CAATCTGAATTCCGGTCTCCC
DNA 2: TGGTGGCTACGACGGGATT
B4: UUAGAAU (DNA:RNA)
RNA: B1 RNA with A25U, C31U
DNA 1: CAATCTGAATTCCGGTCTCCC
DNA 2: TGGTGGCTACGACGGGATT
B5: CGCAAUU (DNA:RNA)
RNA: B1 RNA with A25C, U26G, A27C, G28A, A30U, C31U
DNA 1: CAATCTGAATTCCGGTCTCCC
DNA 2: TGGTGGCTACGACGGGATT
B6: CGUCUGC (DNA:RNA)
RNA: B1 RNA with A25C, U26G, A27U, G28C, A29U, A30G
DNA 1: CAATCTGAATTCCGGTCTCCC
DNA 2: TGGTGGCTACGACGGGATT
B7: UGUCCUC (DNA:RNA)
RNA: B1 RNA with A25U, U26G, A27U, G28C, A29C, A30U
DNA 1: CAATCTGAATTCCGGTCTCCC
DNA 2: TGGTGGCTACGACGGGATT
B8: AACGGAG (DNA:RNA)
RNA: B1 RNA with U26A, A27C, A29G, C31G
DNA 1: CAATCTGAATTCCGGTCTCCC
DNA 2: TGGTGGCTACGACGGGATT
B9: GGGAAUC (DNA:RNA)
RNA: B1 RNA with A25G, U26G, A27G, G28A, A30U
DNA 1: CAATCTGAATTCCGGTCTCCC
DNA 2: TGGTGGCTACGACGGGATT
B10: GUUUAAG (DNA:RNA)
RNA: B1 RNA with A25G, A27U, G28U, C31G
DNA 1: CAATCTGAATTCCGGTCTCCC
DNA 2: TGGTGGCTACGACGGGATT
B11: CUAAGCA (DNA:RNA)
RNA: B1 RNA with A25C, G28A, A29G, A30C, C31A
DNA 1: CAATCTGAATTCCGGTCTCCC
DNA 2: TGGTGGCTACGACGGGATT
B12: UCACUUA (DNA:RNA)
RNA: B1 RNA with A25U, U26C, G28C, A29U, A30U, C31A
DNA 1: CAATCTGAATTCCGGTCTCCC
DNA 2: TGGTGGCTACGACGGGATT
B13: AUGCUUG (DNA:RNA)
RNA: B1 RNA with A27G, G28C, A29U, A30U, C31G
DNA 1: CAATCTGAATTCCGGTCTCCC
DNA 2: TGGTGGCTACGACGGGATT
B14: CGAUGGU (DNA:RNA)
RNA: B1 RNA with A25C, U26G, G28U, A29G, A30G, C31U
DNA 1: CAATCTGAATTCCGGTCTCCC
DNA 2: TGGTGGCTACGACGGGATT
B15: AUCUACG (DNA:RNA)
RNA: B1 RNA with A27C, G28U, A30C, C31G
DNA 1: CAATCTGAATTCCGGTCTCCC
DNA 2: TGGTGGCTACGACGGGATT
B16: UGGAGGC (DNA:RNA)
RNA: B1 RNA with A25U, U26G, A27G, G28A, A29G, A30G
DNA 1: CAATCTGAATTCCGGTCTCCC
DNA 2: TGGTGGCTACGACGGGATT
B17: ACAAAAU (DNA:RNA)
RNA: B1 RNA with U26C, G28A, C31U
DNA 1: CAATCTGAATTCCGGTCTCCC
DNA 2: TGGTGGCTACGACGGGATT
B18: UGCGCGG (DNA:RNA)
RNA: B1 RNA with A25U, U26G, A27C, A29C, A30G, C31G
DNA 1: CAATCTGAATTCCGGTCTCCC
DNA 2: TGGTGGCTACGACGGGATT
B19: UCACCCU (DNA:RNA)
RNA: B1 RNA with A25U, U26C, G28C, A29C, A30C, C31U
DNA 1: CAATCTGAATTCCGGTCTCCC
DNA 2: TGGTGGCTACGACGGGATT
B20: GUCGUGG (DNA:RNA)
RNA: B1 RNA with A25G, A27C, A29U, A30G, C31G
DNA 1: CAATCTGAATTCCGGTCTCCC
DNA 2: TGGTGGCTACGACGGGATT
B21: AGACAUG (DNA:RNA)
RNA: B1 RNA with U26G, G28C, A30U, C31G
DNA 1: CAATCTGAATTCCGGTCTCCC
DNA 2: TGGTGGCTACGACGGGATT
B22: GCACGGG (DNA:RNA)
RNA: B1 RNA with A25G, U26C, G28C, A29G, A30G, C31G
DNA 1: CAATCTGAATTCCGGTCTCCC
DNA 2: TGGTGGCTACGACGGGATT
B23: CAUCCAU (DNA:RNA)
RNA: B1 RNA with A25C, U26A, A27U, G28C, A29C, C31U
DNA 1: CAATCTGAATTCCGGTCTCCC
DNA 2: TGGTGGCTACGACGGGATT
B24: GGGGUGG (DNA:RNA)
RNA: B1 RNA with A25G, U26G, A27G, A29U, A30G, C31G
DNA 1: CAATCTGAATTCCGGTCTCCC
DNA 2: TGGTGGCTACGACGGGATT
B25: CCGGAGA (DNA:RNA)
RNA: B1 RNA with A25C, U26C, A27G, A30G, C31A
DNA 1: CAATCTGAATTCCGGTCTCCC
DNA 2: TGGTGGCTACGACGGGATT
B26: ACUUCUC (DNA:RNA)
RNA: B1 RNA with U26C, A27U, G28U, A29C, A30U
DNA 1: CAATCTGAATTCCGGTCTCCC
DNA 2: TGGTGGCTACGACGGGATT
B27: GACACAG (DNA:RNA)
RNA: B1 RNA with A25G, U26A, A27C, G28A, A29C, C31G
DNA 1: CAATCTGAATTCCGGTCTCCC
DNA 2: TGGTGGCTACGACGGGATT
B28: AUGCAUG (DNA:RNA)
RNA: B1 RNA with A27G, G28C, A30U, C31G
DNA 1: CAATCTGAATTCCGGTCTCCC
DNA 2: TGGTGGCTACGACGGGATT
B29: UAUUGGC (DNA:RNA)
RNA: B1 RNA with A25U, U26A, A27U, G28U, A29G, A30G
DNA 1: CAATCTGAATTCCGGTCTCCC
DNA 2: TGGTGGCTACGACGGGATT
B30: CCGAUUA (DNA:RNA)
RNA: GGGAGACCGGAAUUCAGAUUGUCCCCGAUUAUUAAAUCCCGUCGUAGCCACCA
DNA 1: CAATCTGAATTCCGGTCTCCC
DNA 2: TGGTGGCTACGACGGGATT
B31: GCUCGGC (DNA:RNA)
RNA: B1 RNA with A25G, U26C, A27U, G28C, A29G, A30G
DNA 1: CAATCTGAATTCCGGTCTCCC
DNA 2: TGGTGGCTACGACGGGATT

What follows are binders tested against T1, RBFOX1 RRM RbFoxmut (Fox-RRM*) (assay: EMSA; HiTS-Eq, 1 nM pool, 10 min; buffer printed only for the single-RNA assays: 10 mM Tris pH 7.5, 150 mM NaCl, 3.4 mM EDTA, 0.001% NP-40, 30 C). Conditions: tags: His6 N-terminal (pET28a); label: 5' 32P.
Procedure, shortened: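 Purified wild-type or mutant RbFox RRM at increasing concentrations was equilibrated with 1 nM of 5′-radiolabelled RNA carrying 7 randomized nucleotides for 10 min in 50 µL. Unbound RNA was separated by 8% native PAGE and sequenced. Relative association constants came from read-count changes of each RNA species compared with the control reaction, normalised to the cognate motif.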

Row | Binder | binding signal
1 | B1 | 0.0971 KA relative to UGCAUGU
2 | B2 | 0.122 KA relative to UGCAUGU
3 | B3 | 0.396 KA relative to UGCAUGU
4 | B4 | 0.125 KA relative to UGCAUGU
5 | B5 | 0.0714 KA relative to UGCAUGU
6 | B6 | 0.121 KA relative to UGCAUGU
7 | B7 | 0.0783 KA relative to UGCAUGU
8 | B8 | 0.0895 KA relative to UGCAUGU
9 | B9 | 0.494 KA relative to UGCAUGU
10 | B10 | 0.131 KA relative to UGCAUGU
11 | B11 | 0.162 KA relative to UGCAUGU
12 | B12 | 0.116 KA relative to UGCAUGU
13 | B13 | 0.361 KA relative to UGCAUGU
14 | B14 | 0.112 KA relative to UGCAUGU
15 | B15 | 0.132 KA relative to UGCAUGU
16 | B16 | 0.0871 KA relative to UGCAUGU

Row | Binder | binding signal
17 | B17 | 0.0817 KA relative to UGCAUGU
18 | B18 | 0.111 KA relative to UGCAUGU
19 | B19 | 0.0812 KA relative to UGCAUGU
20 | B20 | 0.112 KA relative to UGCAUGU
21 | B21 | 0.102 KA relative to UGCAUGU
22 | B22 | 0.129 KA relative to UGCAUGU
23 | B23 | 0.117 KA relative to UGCAUGU
24 | B24 | 0.121 KA relative to UGCAUGU
25 | B25 | 0.0928 KA relative to UGCAUGU
26 | B26 | 0.0475 KA relative to UGCAUGU
27 | B27 | 0.0627 KA relative to UGCAUGU
28 | B28 | 0.951 KA relative to UGCAUGU
29 | B29 | 0.122 KA relative to UGCAUGU
30 | B30 | 0.116 KA relative to UGCAUGU
31 | B31 | 0.117 KA relative to UGCAUGU
